{"source": "the RNAGym collection of RNA variant scans (doi:10.1073/pnas.2313332121)", "parents": {"B1": {"name": "TPR 5TU (parent)", "chain": "GGAUCUUCUCGAUCUAACAAAAAAGACAAAUCUGCCACAAAGCUUGAGAGCAUCUUCGGAUGCAGAGGCGGCAGCCUUCGGUGGCGCGAUAGCGCCAACGUUCUCAACUAUGACACGCAAAACGCGUGCUCCGUUGAAUGGAGUUUAUCAUG"}}, "note": "Variants at the floor of the assay are shown more often than the library holds them.", "data": [{"variants_of": "B1", "assay": "polymerase ribozyme fitness, log enrichment relative to wild type (log ratio); higher = more active; in vitro selection for triplet polymerase activity", "outline": "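After PCR construction and transcription, each subunit's mutant library from a heterodimeric triplet polymerase ribozyme was annealed with a biotinylated primer, the partner subunit and triplets. Incubation was frozen, at −7 °C, and extended constructs were gel-excised, bound to streptavidin beads and amplified by RT-PCR, in one selection round done in triplicate. Fitness is the logarithm of a genotype's enrichment divided by that of the wild type, from inverse-variance-weighted replicate averages of Illumina-sequenced inputs and outputs. The base of the logarithm is 2, and genotypes needed ≥10 input reads and ≥1 read per output.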", "values": [{"variant": "U6G G84C C96U C132G U144C", "polymerase ribozyme fitness (log ratio)": "≤ -4.2"}, {"variant": "U6G U7A C8A U31C U56G G84A", "polymerase ribozyme fitness (log ratio)": "≤ -4.2"}, {"variant": "U6G U7C A16C A17U C32U U45G U61A C63G A64U", "polymerase ribozyme fitness (log ratio)": "≤ -4.2"}, {"variant": "U6G U7G A30U G83C C95G G136A", "polymerase ribozyme fitness (log ratio)": "≤ -4.2"}, {"variant": "U6G U9C A29C G42A G88C C93U C118G C129G", "polymerase ribozyme fitness (log ratio)": "≤ -4.2"}, {"variant": "U6G U9G A16G A49G U135C", "polymerase ribozyme fitness (log ratio)": "≤ -4.2"}, {"variant": "U6G U13C G59A U78G G84U A120G G124U", "polymerase ribozyme fitness (log ratio)": "≤ -4.2"}, {"variant": "U6G U13G A41U A52C G133U A138G U148G", "polymerase ribozyme fitness (log ratio)": "≤ -4.2"}, {"variant": "U6G U13G U31C U53A G58C G84A A98G U102C G124A", "polymerase ribozyme fitness (log ratio)": "≤ -4.2"}, {"variant": "U6G U33G C93A U146C", "polymerase ribozyme fitness (log ratio)": "≤ -4.2"}, {"variant": "U6G U45A C57U G67C C95G C99U", "polymerase ribozyme fitness (log ratio)": "≤ -4.2"}, {"variant": "U6G U53C U61G C99U", "polymerase ribozyme fitness (log ratio)": "≤ -4.2"}, {"variant": "U6G U53G G86C G140U U144C", "polymerase ribozyme fitness (log ratio)": "≤ -4.2"}, {"variant": "U6G U61A C85A C96A A121G", "polymerase ribozyme fitness (log ratio)": "≤ -4.2"}, {"variant": "U6G U139C", "polymerase ribozyme fitness (log ratio)": -3.69}, {"variant": "U7A", "polymerase ribozyme fitness (log ratio)": -2.18}, {"variant": "U7A A12C A24G A47U U90A C114U G126U", "polymerase ribozyme fitness (log ratio)": "≤ -4.2"}, {"variant": "U7A A12G A28U A49C C75U G92A C116U", "polymerase ribozyme fitness (log ratio)": "≤ -4.2"}, {"variant": "U7A A16C C32G A37U C51U A52U U56A C85A", "polymerase ribozyme fitness (log ratio)": "≤ -4.2"}, {"variant": "U7A A16C C35A A47U G50A C75A U90G C95U A121G G152U", "polymerase ribozyme fitness (log ratio)": "≤ -4.2"}, {"variant": "U7A A16G C36U A89U G92U A97C", "polymerase ribozyme fitness (log ratio)": "≤ -4.2"}, {"variant": "U7A A16U C51U A66G C96A C99U", "polymerase ribozyme fitness (log ratio)": "≤ -4.2"}, {"variant": "U7A A17U A23U U31G G80C C95U", "polymerase ribozyme fitness (log ratio)": "≤ -4.2"}, {"variant": "U7A A17U C35A A41G G88C G141U G143C", "polymerase ribozyme fitness (log ratio)": "≤ -4.2"}, {"variant": "U7A A19C A30U G94A C103U U104G U109G C118U", "polymerase ribozyme fitness (log ratio)": "≤ -4.2"}, {"variant": "U7A A19G C76G G86C A147C", "polymerase ribozyme fitness (log ratio)": "≤ -4.2"}, {"variant": "U7A A19G G141C A150G", "polymerase ribozyme fitness (log ratio)": "≤ -4.2"}, {"variant": "U7A A19U A49U G88U G100U", "polymerase ribozyme fitness (log ratio)": "≤ -4.2"}, {"variant": "U7A A20G G86C G92A A115C G140C A150C", "polymerase ribozyme fitness (log ratio)": "≤ -4.2"}, {"variant": "U7A A20U A22U C36U A52G G67U G92U U109G", "polymerase ribozyme fitness (log ratio)": "≤ -4.2"}, {"variant": "U7A A21C U53G U56A G58C A60U C75A", "polymerase ribozyme fitness (log ratio)": "≤ -4.2"}, {"variant": "U7A A22C A28C A60C G92A G143C A147G", "polymerase ribozyme fitness (log ratio)": "≤ -4.2"}, {"variant": "U7A A22C C32U U33C A37U C54U U56A U101A", "polymerase ribozyme fitness (log ratio)": "≤ -4.2"}, {"variant": "U7A A22C C85U", "polymerase ribozyme fitness (log ratio)": -4.04}, {"variant": "U7A A22C G50C G81U U82C", "polymerase ribozyme fitness (log ratio)": "≤ -4.2"}, {"variant": "U7A A23G U33A C57U G58A G59A C76U G94U A142U", "polymerase ribozyme fitness (log ratio)": "≤ -4.2"}, {"variant": "U7A A23U A47C U55G C63A U77A C87A A89U C93U C99A", "polymerase ribozyme fitness (log ratio)": "≤ -4.2"}, {"variant": "U7A A24C A47C A52C G58A G67A A98U C99G U102A G136C A138C A147C", "polymerase ribozyme fitness (log ratio)": "≤ -4.2"}, {"variant": "U7A A24G A30G C54U U55A G94U", "polymerase ribozyme fitness (log ratio)": "≤ -4.2"}, {"variant": "U7A A24G A30G G42U U56C G58A G59C C87G A121U", "polymerase ribozyme fitness (log ratio)": "≤ -4.2"}, {"variant": "U7A A26U C32G A49C G50A G83U", "polymerase ribozyme fitness (log ratio)": "≤ -4.2"}, {"variant": "U7A A29C A60U C76G C95U G133A G141A", "polymerase ribozyme fitness (log ratio)": "≤ -4.2"}, {"variant": "U7A A29C G50U G92A", "polymerase ribozyme fitness (log ratio)": "≤ -4.2"}, {"variant": "U7A A29G C76G C85G", "polymerase ribozyme fitness (log ratio)": "≤ -4.2"}, {"variant": "U7A A29G G67A C69U G80C C103G U104C C105U G136A G140U", "polymerase ribozyme fitness (log ratio)": "≤ -4.2"}, {"variant": "U7A A37U U61G U78G C99G G140A", "polymerase ribozyme fitness (log ratio)": "≤ -4.2"}, {"variant": "U7A A40U A47G G92C G141U", "polymerase ribozyme fitness (log ratio)": "≤ -4.2"}, {"variant": "U7A A41C C43U G71A C87U A113G C118A U127A G128A", "polymerase ribozyme fitness (log ratio)": "≤ -4.2"}, {"variant": "U7A A47C G65C C76A U78G C95U C118A C131G C149A", "polymerase ribozyme fitness (log ratio)": "≤ -4.2"}, {"variant": "U7A A49U G80U G88U A115C", "polymerase ribozyme fitness (log ratio)": "≤ -4.2"}, {"variant": "U7A A91G U145G", "polymerase ribozyme fitness (log ratio)": "≤ -4.2"}, {"variant": "U7A C8U C18G A26U C54U A60G C95U", "polymerase ribozyme fitness (log ratio)": "≤ -4.2"}, {"variant": "U7A C10A C51U A52G A73G C87G A138C", "polymerase ribozyme fitness (log ratio)": "≤ -4.2"}, {"variant": "U7A C10A C75A G88U G94U C95U G140U A142C", "polymerase ribozyme fitness (log ratio)": "≤ -4.2"}, {"variant": "U7A C10G U55A C72U G94A U151A", "polymerase ribozyme fitness (log ratio)": "≤ -4.2"}, {"variant": "U7A C10U C35U G71A U78G G84C G92A", "polymerase ribozyme fitness (log ratio)": "≤ -4.2"}, {"variant": "U7A C10U G70C G84C A120C G141C", "polymerase ribozyme fitness (log ratio)": "≤ -4.2"}, {"variant": "U7A C14G A26G G46U C95A C96A", "polymerase ribozyme fitness (log ratio)": "≤ -4.2"}, {"variant": "U7A C14G A29G C35G C36A G74A A91U C96A", "polymerase ribozyme fitness (log ratio)": "≤ -4.2"}, {"variant": "U7A C14G G50C G58A G86U U102G A106U U111G U135A U148C", "polymerase ribozyme fitness (log ratio)": "≤ -4.2"}, {"variant": "U7A C14G U15A A22C C54U G62U C93G C96U A98C", "polymerase ribozyme fitness (log ratio)": "≤ -4.2"}, {"variant": "U7A C14G U44A U45A A47C G86A U130G", "polymerase ribozyme fitness (log ratio)": "≤ -4.2"}, {"variant": "U7A C18A U33G A66U G84A G100A G124C", "polymerase ribozyme fitness (log ratio)": "≤ -4.2"}, {"variant": "U7A C27A G59U G83A G94A C103G", "polymerase ribozyme fitness (log ratio)": "≤ -4.2"}, {"variant": "U7A C32U U61A G74U C99G", "polymerase ribozyme fitness (log ratio)": "≤ -4.2"}, {"variant": "U7A C35G G46C G80C G86A C95U", "polymerase ribozyme fitness (log ratio)": "≤ -4.2"}, {"variant": "U7A C35U C57A C69A A113U G152C", "polymerase ribozyme fitness (log ratio)": "≤ -4.2"}, {"variant": "U7A C36U C95G", "polymerase ribozyme fitness (log ratio)": "≤ -4.2"}, {"variant": "U7A C38U A66G C76U U78A C114A G141C", "polymerase ribozyme fitness (log ratio)": "≤ -4.2"}, {"variant": "U7A C38U C75G C85U C125U", "polymerase ribozyme fitness (log ratio)": "≤ -4.2"}, {"variant": "U7A C43U", "polymerase ribozyme fitness (log ratio)": "≤ -4.2"}, {"variant": "U7A C43U C85U C99U C132U", "polymerase ribozyme fitness (log ratio)": "≤ -4.2"}, {"variant": "U7A C43U U78A G80C C93U C96A G143U U148A", "polymerase ribozyme fitness (log ratio)": "≤ -4.2"}, {"variant": "U7A C85G G117U G143U", "polymerase ribozyme fitness (log ratio)": "≤ -4.2"}, {"variant": "U7A C87G A142G", "polymerase ribozyme fitness (log ratio)": "≤ -4.2"}, {"variant": "U7A C93U C132G A147G", "polymerase ribozyme fitness (log ratio)": "≤ -4.2"}, {"variant": "U7A G11C C87A G124U G141A U148G", "polymerase ribozyme fitness (log ratio)": "≤ -4.2"}, {"variant": "U7A G11C U56G G92U C93U C96G A119C G133C", "polymerase ribozyme fitness (log ratio)": "≤ -4.2"}, {"variant": "U7A G25C A26U C69A U77A C103A G143C", "polymerase ribozyme fitness (log ratio)": "≤ -4.2"}, {"variant": "U7A G42C C54U G70C C93U", "polymerase ribozyme fitness (log ratio)": "≤ -4.2"}, {"variant": "U7A G48A G65C G100U C149U", "polymerase ribozyme fitness (log ratio)": "≤ -4.2"}, {"variant": "U7A G58C", "polymerase ribozyme fitness (log ratio)": -3.68}, {"variant": "U7A G84A A98G A110G", "polymerase ribozyme fitness (log ratio)": "≤ -4.2"}, {"variant": "U7A G84A G94U U146A", "polymerase ribozyme fitness (log ratio)": "≤ -4.2"}]}]}
